# Test results: PubChem BioAssay AID493208 (National Center for Advancing Translational Sciences (NCATS), 2011)
# About 340 (0.77%) of roughly 44,000 compounds were called active. Roughly 5% stayed inconclusive and do not appear here. The call rests on the fitted dose curve; in most records, active means well fitted inhibition curve with a large enough effect; inconclusive means small, poorly fitted or top-dose-only effect; inactive means flat fitted curve, though single readings scatter. The list shows a part of the results.
# Experiment: Acumen qHTS Assay for Inhibitors of the mTORC1 Signaling Pathway in MEF (Tsc2-/-, p53-/-) Cells: Sytravon;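 further: plate controls were DMSO for no effect and rapamycin for full effect; nearly all actives have a fitted effect of over 50% in size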
# Settings: phospho-rpS6 immunofluorescence/PI, 24 h; series mostly up to 38.3 µM; activity change, negative = inhibition: at the top concentration
# How it was run: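 Compounds act on Tsc2-/-, p53-/- fibroblasts carrying an empty vector for 24 h before fixation and dual staining for phospho-S6 and DNA (propidium iodide). Values are percentages of cells above a rapamycin-defined pS6/PI threshold.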
row,SMILES,"activity change, negative = inhibition"
1,Cc1cc2c(cc1S(=O)(=O)CCC(=O)N(C)Cc1ccccc1)OCC(=O)N2,inactive: 5.99%
2,COc1ccc2c(CNCCc3ccccc3OC)c(C(=O)O)n(Cc3ccc(F)cc3Cl)c2c1,inactive: -20.1%
3,CSc1cccc(NC(=O)N2CCN(S(=O)(=O)c3ccc4c(ccn4C)c3)CC2)c1,inactive: -1%
4,CC1=C(C(=O)OC2CCCC2)C(c2ccc(Cl)cc2)CC(=O)N1 (configuration not stated),inactive: -2.84%
5,O=C(CSc1nc(-c2ccccc2)no1)N1CCN(c2ccc(F)cc2)CC1,inactive: 8.98%
6,COc1ccc(C2=NS(=O)(=O)N(C)C(C(=O)NC(C)c3ccccc3)=C2)cc1OC (configuration not stated),inactive: 1.15%
7,Cc1cc(C)cc(NC(=O)CN(c2cccc(C)c2C)S(=O)(=O)c2ccccc2)c1,inactive: -12.8%
8,COc1cccc(N2C(=O)CSC23C(=O)N(Cc2ccccc2F)c2ccccc23)c1 (configuration not stated),inactive: -10.5%
9,Cc1cccc(NC(=O)C2CCN(S(=O)(=O)c3c(C)noc3/C=C/c3ccco3)CC2)c1C,inactive: 6.67%
10,COc1ccc(-c2nc(SCCOc3cc(C)ccc3C(C)C)n3[nH]c(=O)cc3n2)cc1,inactive: -1.87%
11,CCOc1cc(Cl)c(S(=O)(=O)n2cc(C)nc2CC)cc1Cl,inactive: -1.82%
12,CN(C)c1ccc(CNS(=O)(=O)c2csc(C(N)=O)c2)cc1,inactive: -26.9%
13,COc1cccc(NC(=O)Nc2cc(-c3cn4cccnc4n3)ccc2OC)c1,inactive: -4.57%
14,CCn1cc2nc(SCc3ccccc3)n(Cc3ccc(C)cc3)c(=O)c2n1,inactive: 6.34%
15,O=C(NCC(c1ccco1)S(=O)(=O)c1cccs1)c1ccc(C(F)(F)F)cc1 (configuration not stated),inactive: -0.629%
16,Cc1ccccc1NC(=O)CSc1nc2ccc(NC(=O)c3ccco3)cc2s1,inactive: -6.67%
17,COc1ccc(C)cc1NC(=O)c1cc(S(=O)(=O)NCCC2=CCCCC2)ccc1F,inactive: -9.85%
18,Clc1ccc(-c2noc3ncnc(N4CCCCC4)c23)cc1,inactive: -24.3%
19,COc1ccc(-c2noc(CSc3nnc(C)n3-c3ccc(C)cc3)n2)cc1,inactive: -14.8%
20,COc1ccc(N2CC(C(=O)Nc3ccccc3-c3nc(-c4ccc(C)cc4)no3)CC2=O)cc1 (configuration not stated),inactive: -9.69%
21,COc1ccc(C(=O)NCCc2nc3ccccc3[nH]2)cc1,inactive: -1.25%
22,CCOc1ccc(C(CC(=O)Nc2ccc(C(=O)OC)cc2)N2Cc3ccccc3C2=O)cc1OC (configuration not stated),inactive: 0.612%
23,CC(C)(C)c1ccc(OCc2cc(=O)n3c4c(sc3n2)CCCC4)cc1,inactive: -4.72%
24,Cc1ccccc1CSCc1ccc(C(=O)NCCc2ccccc2)o1,inactive: 2.26%
25,O=C(COc1ccc(F)cc1)OCc1cc(=O)n2nc(C3CC3)sc2n1,inactive: 0%
26,Cc1ccc(CCNC(=O)C2CCCN(S(=O)(=O)c3ccc4c(c3)oc(=O)n4C)C2)cc1 (configuration not stated),inactive: 4.98%
27,CCc1ccc(-n2nc(C)c3c(C)cc(=O)n(CC(=O)N(CC)Cc4ccccc4)c32)cc1,inactive: 3.08%
